Measured values reported in the supplement of paper PMC5499739.
The full ranking holds about 16,000 sequences; the median of “Z-score” is about -0.37, and the highest 2% start at about 3.1. This is one part of the list.

tested on: RBM10 RRM1-ZnF-RRM2 (GST-tagged construct); test: RNAcompete 7-mer binding Z-score; higher = stronger binding preference
Method: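 RNAcompete: 20 pmol GST-tagged RBM10 RNA-binding constructs were incubated with a designed RNA pool of about 241,000 sequences up to 41 nt (1.5 nmol) on glutathione beads for 30 min at 4 °C and washed. Bound RNAs were identified by microarray hybridisation. Each RNA 7-mer is scored by a one-sided Z-score of its enrichment, computed over probes that contain the 7-mer within longer pool sequences.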

Sequence | RNAcompete 7-mer binding Z-score
CGGCAGG | 1.39
UCCACGU | -0.49
AGCAUGC | -0.286
GCUAUCU | -0.785
GAGCGUA | 0.399
AAUGCCC | -0.744
GAAUGUA | 0.811
UAAUAAA | -0.679
ACUGGGC | 0.927
CUUGGUU | -0.533
CUGACGA | -0.439
GAUAAUU | -0.278
AACCUAC | -0.777
CUCGUAC | -0.628
GCCAGGU | 0.253
CAUUGUU | -0.592
CAAGUUA | -0.216
GGAAACC | 0.8
AAGAAAA | 0.104
ACCCUCU | -0.967
GCGUUAU | -0.125
GUGCCGU | -0.158
GACGACC | -0.453

Sequence | RNAcompete 7-mer binding Z-score
ACCAGUG | 0.213
AUAGCCG | -0.351
AAAAGUA | 0.304
CCGGACU | -0.428
AUUGACA | -0.0707
UUUUGCU | -0.836
GAAUGAA | 0.425
CGGAACU | 0.075
UGGACGC | 0.548
GGUCUUA | -0.475
UGUGAGA | 0.734
AGUCAGC | -0.238
UACUAUA | -0.42
ACUUCUG | -0.901
UCGAAAC | -0.533
ACAGGCG | 1.43
UAUUCGU | -0.704
UCUAUCG | -0.744
CCCGUGC | -0.544
AUGGCAG | 1.49
CCGAAUC | -0.963
GCGAGCA | 1.09
GACCACG | -0.446

Sequence | RNAcompete 7-mer binding Z-score
UGCUAAU | -0.635
GGAAAGC | 2.01
GGCUUAG | 0.414
GUGGGCC | 1.58
AAGACCC | -0.803
AGCAACC | -0.653
AUUCGAA | -0.475
CGGACAG | 0.701
AUUGGUC | -0.0124
AGUAGCA | 0.301
UCACCAG | -0.344
AUCUACG | -0.53
UGUGUGA | 0.396
GACCGUG | -0.282
GCAAACU | -0.34
GUGAUAG | 1.19
CUAGCUU | -0.865
GGAGACG | 1.91
UAUUUUA | -0.846
UAUUUUC | -0.974
CCCCCCA | -0.38
CCCGCAC | -0.894
GGGUCUU | 0.377

Sequence | RNAcompete 7-mer binding Z-score
ACCAGGC | -0.136
GCGCAUG | 0.301
CAAUACG | -0.0124
GUAUUGC | -0.329
CAAGAUG | -0.0343
CAAAUCC | -0.737
CGUCUAG | -0.533
ACAUAAU | -0.577
GCACAAC | -0.318
UCGAGUA | -0.0488
GGAUUUA | 0.607
UAGGAUU | 0.774
CCAACAU | -0.643
CCAGAUG | -0.329
GGCCGUA | 0.0786
GUGCAAA | 0.483
UGUAUAA | -0.111
GCCACAG | -0.165
UUAGCAU | -0.406
CCCGUUU | -1.04
UGCCUAA | -0.836
UCUACCU | -0.879
GGUAAAU | 1.4

Sequence | RNAcompete 7-mer binding Z-score
CGUGCCU | -0.836
GUCAAAA | -0.209
ACCAAUU | -0.522
AUAGUGU | 0.0568
ACCCACA | -0.843
GCGCGAU | 0.024
GGAGCGA | 2.9
AGUUGUU | -0.431
UGAACAA | 0.0459
GCGCGUG | 0.661
CUUUCGA | -0.876
CCCGCGA | -0.887
UAAAGUC | -0.351
UCGCAUG | -0.526
UCGGCUA | -0.537
AGUCAGA | 0.246
AUUCCUU | -0.879
GCGUCGA | -0.114
CUCUCAA | -0.741
ACUUAUU | -0.712
GGUUGUA | 0.935
GGAUGUC | 0.556
UACAAAA | -0.369

Sequence | RNAcompete 7-mer binding Z-score
CCUAUAA | -0.595
CGGGCAU | 0.836
GCGCGAA | -0.322
AGUAAAC | 0.0532
GCGACCG | -0.0197
UCCCGUU | -0.799
GAGAUGU | 0.392
UCCGCCA | -0.861
GAGCACU | -0.435
AAGUCCC | -0.632
ACUUGGC | -0.679
UCGAAAU | -0.573
UAUUAUG | -0.078
GCGUUCC | -0.562
GUUAGGU | 1.89
UACCGUU | -0.643
UGAGUGU | 0.355
GGACAUC | 0.272
UCCAUUA | -0.653
GUUCAGG | 0.53
AGGUUUG | 0.942
CUUGCAG | -0.697
CUUAAGU | -0.628

Sequence | RNAcompete 7-mer binding Z-score
AUGACUG | -0.213
CCGGGUU | 0.385
CCUGUGA | -0.737
UCUUAGA | -0.657
CUUCACG | -0.825
ACAGCUA | -0.398
AUGGAGU | 2.24
AAACGAG | 0.738
UACGAGA | 0.00944
UGACCCA | -0.562
CGUGCCG | -0.49
GAGCGAA | 1.04
ACGCAUG | -0.00877
GCUGACG | 0.0058
GCACGCC | -0.581
CAAGUAU | -0.391
AUAUAUU | -0.515
CAUAUAU | -0.602
UAAACGC | -0.533
AUAUUGA | -0.198
GCGGCUC | -0.191
AAACUAG | -0.0306
UACGCCC | -0.741

Sequence | RNAcompete 7-mer binding Z-score
GUAUUCC | -0.271
CCAGCCG | -0.657
CCCUAAA | -0.814
AUUUGAG | -0.078
CGGCUGC | -0.0998
CUACUUC | -0.992
AUCGCAA | -0.388
UACAGGU | 0.763
UGGAGCU | 0.494
GCUGGCG | 0.647
GAUGUCU | -0.537
CCGUACG | -0.544
GUAACUU | -0.435
CCCUUCU | -0.836
AGUCCCU | -0.85
GUCCGAC | -0.704
CCUAGUA | -0.482
GCUUAUG | -0.435
AUCAAGC | -0.435
ACUUUGG | -0.351
UUCACCA | -0.792
CAGACGA | 0.501
